# Reference: publication PMC4336329 (PLoS ONE, 2015)
# The whole screen tested about 310,000 compounds, of which about 2,200 (0.71%) showed an effect of 50% or more. Effects have a minus sign here. Some of the results follow.
# Biological target: human ether-à-go-go-related gene (hERG) potassium channel (human, UniProt Q12809)
# Test: primary screen, population patch clamp on CHO cells stably expressing hERG
# Chain of human ether-à-go-go-related gene (hERG) potassium channel (Q12809 whole entry, looked up): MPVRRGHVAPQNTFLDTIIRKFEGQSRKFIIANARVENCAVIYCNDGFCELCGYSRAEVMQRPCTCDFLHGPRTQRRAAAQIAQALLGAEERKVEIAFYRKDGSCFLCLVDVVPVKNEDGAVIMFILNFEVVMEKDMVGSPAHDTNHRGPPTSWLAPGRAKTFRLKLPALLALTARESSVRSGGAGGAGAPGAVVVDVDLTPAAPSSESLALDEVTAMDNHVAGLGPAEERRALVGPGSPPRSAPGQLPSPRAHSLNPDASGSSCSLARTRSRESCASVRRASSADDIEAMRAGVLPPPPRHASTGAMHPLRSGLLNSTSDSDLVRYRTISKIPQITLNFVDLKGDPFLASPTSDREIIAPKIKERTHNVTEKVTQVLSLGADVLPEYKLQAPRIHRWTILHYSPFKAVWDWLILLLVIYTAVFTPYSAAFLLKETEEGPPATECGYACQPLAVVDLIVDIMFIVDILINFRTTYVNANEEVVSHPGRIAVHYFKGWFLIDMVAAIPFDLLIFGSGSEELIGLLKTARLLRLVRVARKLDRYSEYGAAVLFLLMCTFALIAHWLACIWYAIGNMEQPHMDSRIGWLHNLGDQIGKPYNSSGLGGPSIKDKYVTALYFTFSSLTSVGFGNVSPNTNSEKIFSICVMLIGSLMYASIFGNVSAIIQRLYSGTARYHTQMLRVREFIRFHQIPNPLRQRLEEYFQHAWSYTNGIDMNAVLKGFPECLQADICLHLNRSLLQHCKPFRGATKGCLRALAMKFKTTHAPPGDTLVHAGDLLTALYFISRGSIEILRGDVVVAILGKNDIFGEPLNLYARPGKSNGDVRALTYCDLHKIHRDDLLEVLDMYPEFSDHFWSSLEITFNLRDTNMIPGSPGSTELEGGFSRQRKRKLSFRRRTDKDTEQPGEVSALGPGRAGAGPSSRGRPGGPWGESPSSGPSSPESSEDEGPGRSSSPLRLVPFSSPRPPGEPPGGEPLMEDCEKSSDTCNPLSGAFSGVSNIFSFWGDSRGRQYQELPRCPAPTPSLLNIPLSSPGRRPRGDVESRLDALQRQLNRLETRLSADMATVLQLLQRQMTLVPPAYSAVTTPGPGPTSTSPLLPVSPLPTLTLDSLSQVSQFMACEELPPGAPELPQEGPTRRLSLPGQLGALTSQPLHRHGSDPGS
row,SMILES,"hERG current change (%, negative = inhibition) at 1uM [%]"
1,O=C(O)/C=C\C(=O)Nc1ccc(N2CCN(c3ccc(Cl)c(Cl)c3)CC2)cc1,16.3
2,Cc1ccc(C(=O)NC(=S)NCc2ccccc2)cc1Br,4.54
3,O=C(NCc1cccnc1)c1cccn2c(=O)c3sccc3nc12,-16.3
4,Cc1nn(C)c(Cl)c1CN1CCN(CCC(C)C)C(CCO)C1 (stereo not drawn),9.94
5,CC(C)(C)NC(=O)C(c1ccncc1)N(C(=O)Cn1nnc(-c2ccc(F)cc2)n1)c1ccccc1 (stereo not drawn),8.88
6,CCOc1ccc(CC(=O)Nc2nccs2)cc1,-9.48
7,COc1cccc(N2CC(C(=O)Nc3ccc(F)cc3)CC2=O)c1 (stereo not drawn),10.6
8,CN1C(=S)SC(C)(C)C1(C)NO (stereo not drawn),10.6
9,O=C(Oc1ccccc1N1C(=O)C2CCCCC2C1=O)c1ccc(Cl)cc1 (stereo not drawn),6.32
10,Cl.c1ccc2c(N3CCNCC3)cccc2c1,13.5
11,COc1cc(NS(=O)(=O)c2ccc(NC(=S)NC(=O)C3CCCC3)cc2)nc(OC)n1,-1.13
12,NS(=O)(=O)c1ccc(NC(=O)CCCC(=O)O)cc1,0.755
13,Cc1ccccc1Cn1ccc(NC(=O)c2cnn3c(C(F)(F)F)cc(-c4ccco4)nc23)n1,12.9
14,O=C(Cc1cccc(C(F)(F)F)c1)OCN1C(=O)c2ccccc2C1=O,9.89
15,CN(C)c1cc(-c2ccc(Cl)cc2)oc(=O)c1Cl,7.71
16,Nc1nc(SCc2ccccc2Cl)n[nH]1,14
17,O=c1c2ccccc2nc(SCc2cn3ccsc3n2)n1-c1ccc(F)cc1,11
18,COc1ccc(CN(C(=O)c2ccco2)c2ccccc2)cc1,9.85
19,CCc1nn(CC(=O)NCCCc2ccccc2)c(=O)c2cc3cc(F)ccc3n12,5.07
20,COc1ccc(CC(=O)NCC2CCCN(Cc3cccc(SC)c3)C2)cc1 (stereo not drawn),-7.33
21,CCOc1cc(/C=C(\C#N)C(=O)NCC2CCCO2)ccc1OCC(N)=O (stereo not drawn),19.4
22,O=C(CSc1nnc(-c2cccs2)n1Cc1ccco1)c1ccc2c(c1)OCO2,-0.841

row,SMILES,"hERG current change (%, negative = inhibition) at 1uM [%]"
1,COCCN1C(=O)N(c2cccc(OC)c2)C(=O)C1CC(=O)Nc1ccc(OC)cc1 (stereo not drawn),2.61
2,COc1ccc(N(CC(=O)NN=C2CCCC2)S(=O)(=O)c2ccccc2)cc1Cl,11.1
3,CC(O)CNc1nc2c(c(=O)n(C)c(=O)n2C)n1CCc1ccccc1 (stereo not drawn),17.1
4,Cc1ccc(CNC(=O)C2CC(c3cccc([N+](=O)[O-])c3)=NO2)cc1 (stereo not drawn),3.59
5,COC(=O)/C=C1/S/C(=N/NC(=O)c2ccc(Cl)cc2Cl)NC1=O,3.61
6,Cc1cccc(N2C(=O)SC(N(C)c3ccccc3)C2=O)c1 (stereo not drawn),-0.856
7,O=C(COC(=O)c1cccs1)Nc1ccccc1Cl,14.6
8,CCc1ccc2oc(-c3cc(N)ccc3O)nc2c1,9.06
9,Nc1nnc(CC(=O)N/N=C/c2ccccc2OCc2ccccc2F)s1,14.3
10,CC1(C)C([N+](=O)[O-])C(c2ccc(Cl)cc2)NC(c2ccc(Cl)cc2)C1[N+](=O)[O-] (stereo not drawn),12.2
11,CCCNS(=O)(=O)c1ccc(OCC(=O)N2CCC(C(=O)OCC)CC2)cc1,2.86
12,CC(=O)c1ccc(OCC(O)CN2CCN(CCN3C(=O)c4cccc5cccc(c45)C3=O)CC2)cc1.Cl (stereo not drawn),1.61
13,CNc1ccc(S(=O)(=O)NCC(=O)OC(C)C(=O)N(C)Cc2ccccc2)cc1[N+](=O)[O-] (stereo not drawn),12.2
14,COc1ccccc1/C=C/C(=O)NCC(=O)N/N=C/c1ccccc1[N+](=O)[O-],3.16
15,CNC(=O)c1nnn(Cc2ccccc2)c1NC(=O)C(F)(F)F,16.8
16,Cc1nc(-c2cccc(NC(=O)c3ccc(-n4nccc4C)cc3)c2)cs1,8.67
17,O=Cc1cccc(OC(=O)c2ccc(Cl)cc2Cl)c1,15
18,COc1ccc(N2C(=O)c3ccccc3NC2c2ccc(OC)c(Cn3nnc4ccccc43)c2)cc1 (stereo not drawn),1.74
19,CC(=O)O[C@H]1CCC2C3CCC4=CC(=O)CCC4=C3C=C[C@@]21C (stereo partly drawn),8.23
20,CCC(=O)Nc1ccc(C(=O)NNC(=O)c2cc(OC)c(OC)c(OC)c2)cc1,11.9
21,COCC(=O)Nc1ccc(C(=O)Nc2ccccc2Cl)cc1,12.4
22,Cc1cccc(C)c1NC(=O)N1CCCCCCC1,11.5

row,SMILES,"hERG current change (%, negative = inhibition) at 1uM [%]"
1,COc1ccccc1-c1cn[nH]c1-c1ccc(OCc2ccccc2F)cc1O,12.6
2,Cc1ccccc1NC(C)C(=O)N/N=C/c1c[nH]c2ccccc12 (stereo not drawn),29.1
3,Cc1ccc(C)c(NC(=S)NCCSc2ccc(Cl)cc2)c1,11.9
4,O=C(NCc1ccc(C(F)(F)F)cc1)C1CC(c2ccc(C(F)(F)F)cc2)=NO1 (stereo not drawn),8.63
5,Cc1coc2cc3oc(=O)c(CCC(=O)NCCCN4CCCC4=O)c(C)c3cc12,11.8
6,COc1ccc2nc(SCC(=O)NC(C)C)[nH]c2c1,17.7
7,COc1cccc2cc(C(=O)N3CCCCC3C)c(=O)oc12 (stereo not drawn),7.58
8,CC(=O)C1=C(C)NC(=O)CC1c1ccccc1Cl (stereo not drawn),8.02
9,COc1cccc(NS(=O)(=O)c2ccc3c(c2)N(C(C)=O)CCS3)c1,11
10,CC(C)n1nnnc1SCC(=O)NC1CCCC1,13
11,O=C(O)CCSC(=S)N1CCOCC1,5.45
12,CCOC(=O)c1ccc(NC(=S)N2CCN(CCNC3=CC(=O)CC(C)(C)C3)CC2)cc1,11.1
13,O=C(Cc1c(F)cccc1Cl)Nc1nc2ccccc2s1,4.63
14,Clc1ccc(-c2nc(N3CCCCC3)nc3ccccc23)cc1,6.62
15,Cc1ccc(C(=O)N/C(=C\c2ccc(-c3ccccc3[N+](=O)[O-])o2)C(=O)NCCCN(C)C)cc1,-14.9
16,CCCN(C(=O)c1cc(Cl)nc2ccccc12)c1c(N)n(Cc2ccccc2)c(=O)[nH]c1=O,-2.99
17,CN(C)S(=O)(=O)c1ccc(N2CCCC2)c(C(=O)Nc2nc(-c3cc(F)ccc3F)cs2)c1,5.97
18,Cc1noc(C)c1CSc1ccc2ccccc2n1,4.91
19,Cc1cc(C(=O)NNC(=O)c2cccs2)nn1C(C)(C)C,6.27
20,Cc1ccc(S(=O)(=O)N(c2cccc(C)c2)C2CCS(=O)(=O)C2)cc1 (stereo not drawn),6.79
21,COc1ccc(C(C[N+](=O)[O-])c2c(-c3ccccc3)cc3ccccn23)cc1OC (stereo not drawn),6.52
22,CCc1ccc(-c2nc(CS(=O)CC(=O)NCCCN3CCOCC3)c(C)o2)cc1 (stereo not drawn),20.8

row,SMILES,"hERG current change (%, negative = inhibition) at 1uM [%]"
1,COc1ccc(CN2C(=NC(=O)C3CCCCC3)SC3CS(=O)(=O)CC32)cc1 (stereo not drawn),3.61
2,O=C(/C=C/c1ccccc1)Nc1ccc(NC(=O)c2cccs2)cc1,6.21
3,CN(CCOc1ccccc1)CC(=O)Nc1ccc(Cl)cc1[N+](=O)[O-].O=C(O)C(=O)O,4.11
4,CN(CC(=O)Nc1ccc(N2CCOCC2)cc1)Cc1cc(=O)n2ccsc2n1,1.49
5,Cc1cccc(C)c1Nc1c(-c2ccc(N3CCOCC3)cc2)nc2ncccn12,6.9
6,CCCCOC(=O)c1[nH]c(C)c(C(=O)OC)c1C,15.4
7,O=C(CNCc1ccccn1)Nc1ccc([N+](=O)[O-])cc1C(=O)Nc1ccccc1F,16.1
8,O=C(NC(Cc1ccccc1)C(=O)O)/C(=C\c1ccco1)NC(=O)c1ccccc1 (stereo not drawn),9.51
9,CC1(C)Cc2[nH]c(=O)c(C#N)cc2CS1,-5.4
10,COc1cc(OC)cc(-c2cc(N3C(=O)Nc4ccccc4N3O)n[nH]2)c1,13
11,Cc1ccc(N(CC(=O)NCCc2ccc(F)cc2)S(=O)(=O)c2ccc(Cl)c([N+](=O)[O-])c2)c(C)c1,6.26
12,COc1ccc(C(C(=O)NC2CCCC2)N(C(=O)CNC(=O)c2ccco2)c2cccnc2)cc1 (stereo not drawn),7.36
13,Cc1cc(OCC(=O)O/N=C(\N)c2ccccc2)ccc1Br,17.2
14,COc1ccccc1C1=NNC(=NCc2ccccc2)SC1,9.34
15,CS(=O)(=O)N1CCN(c2cccc(Cl)n2)CC1,16.6
16,CN(Cc1nc(-c2ccc(C(F)(F)F)cc2)no1)C1CCOCC1,8.84
17,COCCn1c(SCc2ccc(C(=O)OC)o2)nc2cc(Cl)ccc2c1=O,4.1
18,O=C(CSc1nc(C2CC2)nc2ccccc12)NCc1ccc2c(c1)OCO2,14.6
19,Cc1ccc(NC(=O)[C@@H](NC(=O)c2cccc(S(=O)(=O)N3CCOCC3)c2)C(C)C)cc1C,7.51
20,CN(C)/C=C(\C=O)c1ccc(Cl)cc1Cl,6.78
21,CCN1CC(CN(C)Cc2nc(COc3ccccc3)no2)CC1=O (stereo not drawn),13.9
